Laboratory results taken from PubChem BioAssay AID588453 (National Center for Advancing Translational Sciences (NCATS), 2011).
The whole screen tested about 390,000 compounds, of which about 4,000 (1%) were called active. Inconclusive means that the source gave no clear call. Such entries were picked first, then a sample of the others. The call rests on the fitted dose curve; in most records, active means well fitted inhibition curve with a large enough effect; inconclusive means small, poorly fitted or top-dose-only effect; inactive means no such curve, though single readings can be large or run the other way. Where the call is inconclusive, the potency comes from a doubtful curve fit.
Further: nearly all actives have a fitted effect of over 65% in size.
On the % scale 0 is the no-effect control and ±100 the full control effect; potency means the concentration at half of the fitted maximal effect; tags describe the fitted curve by direction and shape.

What follows are compounds tested against Thioredoxin reductase 1, cytoplasmic (Rattus norvegicus) (UniProt O89049) (assay: qHTS Assay for Inhibitors of Mammalian Selenoprotein Thioredoxin Reductase 1 (TrxR1): qHTS). Settings: recombinant rTrxR1, NADPH fluorescence consumption, selenite substrate; series mostly up to 114 µM; activity change, negative = inhibition: at the top concentration.
Chain of UniProt O89049 (O89049 whole entry, looked up): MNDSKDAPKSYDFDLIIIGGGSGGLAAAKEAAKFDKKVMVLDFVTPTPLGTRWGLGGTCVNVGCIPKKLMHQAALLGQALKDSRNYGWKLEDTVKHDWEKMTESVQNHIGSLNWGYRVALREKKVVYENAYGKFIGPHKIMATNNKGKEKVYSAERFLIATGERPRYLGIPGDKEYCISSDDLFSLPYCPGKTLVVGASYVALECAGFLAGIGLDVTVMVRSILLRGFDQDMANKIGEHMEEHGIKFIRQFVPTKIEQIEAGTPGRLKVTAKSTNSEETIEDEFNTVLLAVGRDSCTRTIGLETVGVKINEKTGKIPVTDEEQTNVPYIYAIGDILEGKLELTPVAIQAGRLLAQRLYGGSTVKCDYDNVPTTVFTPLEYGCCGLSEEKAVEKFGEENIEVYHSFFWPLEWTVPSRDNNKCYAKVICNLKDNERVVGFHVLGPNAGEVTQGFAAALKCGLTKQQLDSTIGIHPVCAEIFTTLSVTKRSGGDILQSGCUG
How it was run: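 Rat TrxR1 (90 nM in the dispensed reagent) was pre-reduced with 400 uM NADPH for 5 min at room temperature, then incubated with compound for 15 min. After 400 uM selenite was added, NADPH fluorescence (Ex 340/Em 450 nm) was followed for 8 min.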
For `COc1ccc(-n2c(SCC(=O)Nc3nccs3)nnc2-c2ccccc2)cc1`, the Potency was inconclusive: 31.6 µM [inhibitor, partial curve, poor fit]. For `COc1ccc(NC(=O)CC2C(=O)N(c3ccc(C)cc3)C(=O)N2Cc2cccnc2)cc1` (stereo unspecified), the “activity change, negative = inhibition” value was inactive: 14.2%. For `Nc1ccc(-c2nnn(Cc3ccccc3)n2)cc1`, the “activity change, negative = inhibition” value was inactive: 19.9%. For `O=C(NC(Cc1ccccc1)C(=O)O)OCC1c2ccccc2-c2ccccc21` (stereo unspecified), the “activity change, negative = inhibition” value was inactive: 15.5%. With `CCC(=O)NC(=S)NNC(=O)c1ccc(OC)cc1` the Potency was inconclusive: 22.4 µM [inhibitor, partial curve]. For `O=C(/C=C/c1cccc(Br)c1)c1ccc2c(c1)OCO2`, the Potency was inconclusive: 79.4 µM [inhibitor, partial curve, poor fit]. With `O=C(CSc1ccc(-c2ccco2)nn1)N1CCCC1` the Potency was active: 44.7 µM. For `COc1ccc(CCNC(=O)CCNC(=O)N2CC(=O)Nc3ccccc32)cc1`, the “activity change, negative = inhibition” value was inactive: 5.29%. In the case of `c1ccc2sc(-c3ccc4c(c3)OCO4)nc2c1`, the “activity change, negative = inhibition” value is reported as inactive: 36.6%. `CCCCCCC1CC(=O)NC(=S)N1` (stereo unspecified) was tested, and the “activity change, negative = inhibition” value was inactive: 14%. For `Cc1cc(N2C(=O)C(O)=C(C(=O)c3ccc(C)o3)C2c2cccs2)no1` (stereo unspecified), the Potency was inconclusive: 20 µM [inhibitor, full curve]. For `Clc1ccc(C2Nc3ccccc3-n3cccc32)cc1` (stereo unspecified), the Potency was inconclusive: 89.1 µM [inhibitor, partial curve, poor fit]. For `CCOC(=O)c1[nH]c2ccccc2c1NC(=S)Nc1ccccc1`, the Potency was inconclusive: 79.4 µM [inhibitor, single point]. With `COCCN(CCOC)Cc1c(O)ccc2c3c(c(=O)oc12)CCC3` the Potency was inconclusive: 39.8 µM [inhibitor, full curve, poor fit]. With `CC(=O)c1cccc(NC(=O)CCS(=O)(=O)c2cccc3nonc23)c1` the Potency was inconclusive: 15.8 µM [inhibitor, partial curve, poor fit]. For `Oc1ccc(/C=N/n2c(-c3ccccc3)n[nH]c2=S)cc1`, the “activity change, negative = inhibition” value was inactive: -9.31%. With `COc1ccc(N(Cc2cccs2)C(=O)COc2ccc(C(C)C)cc2)cc1` the “activity change, negative = inhibition” value was inactive: 18.7%. With `COc1cccc(NC(=O)Cc2cn(C)c3ccccc23)c1` the Potency was inconclusive: 28.2 µM [inhibitor, single point]. With `Clc1ccc(C(c2ccccc2)N2CCNCC2)cc1` (stereo unspecified) the Potency was inconclusive: 15.8 µM [inhibitor, partial curve, poor fit]. `COc1ccc(-n2cc(-c3ccc(OC)c(OC)c3)[nH]c2=S)cc1` was tested, and the Potency was inconclusive: 56.2 µM [inhibitor, single point]. With `Cc1ccc(/C=C/C(=O)Nc2sc3c(c2C#N)CCCC3)o1` the Potency was inconclusive: 50.1 µM [inhibitor, partial curve, poor fit].
